The whole screen tested about 260,000 compounds, of which about 890 (0.34%) were called active. The shares of active, inactive and inconclusive entries below differ from those in the screen. Calls come from the whole dose curve; as a rule, active = well fitted activation curve with a large enough effect; inconclusive = small, poorly fitted or top-dose-only effect; inactive = no such curve, though single readings can be large or run the other way. Potencies of inconclusive entries are left out as doubtful fits.
What follows are compounds tested against Pyruvate kinase PKM (Homo sapiens) (UniProt P14618) (assay: qHTS Assay for Activators of Human Muscle isoform 2 Pyruvate Kinase). Conditions: purified PKM2, Kinase-Glo ATP luminescence; Potency: activation; activation: at 57.5 µM (top of the series), 0% is enzyme alone, no compound.
Source text: NIH Chemical Genomics Center [NCGC] Matthew G. Vander Heiden, M.D., Ph.D. [Harvard Medical School, 77 Avenue Louis Pasteur, Boston, MA 02115] MLPCN Grant: 1 R03 MH085679-01 NCGC Assay Overview: Human pyruvate kinase muscle 2 (hPK-M2) enzyme was supplied as a highly purified (>95% pure) preparation from Harvard Medical School and assayed for its ability to generate ATP from ADP using phosphoenolpyruvate (PEP) as a substrate. ATP generation was detected in a coupled reaction by luciferase-mediated luminescence, an ATP-dependent process. […] The enzyme was assayed at an intermediate level of activity to screen for both inhibitors and activators.
NCGC Assay Protocol Summary: Three uL of substrate mix (at r.t.) in assay buffer (50 mM Imidazole pH7.2, 50 mM KCl, 7 mM MgCl2, 0.01% Tween 20, 0.05% BSA) was dispensed into white solid bottom 1,536 well microtiter plates so that the final concentrations of substrates in the assay were 0.1 mM ADP and 0.5 mM PEP. 23 nL of compound were delivered by a pin tool and 1 uL of enzyme mix in assay buffer (4 degree Celsius) was added. Plates were incubated at room temperature for 1 hour. Two uL of detection mix (Kinase-Glo, Promega; at 4 degree Celsius protected from light) was added and luminescence read by a ViewLux (Perkin Elmer) at 5 second exposure/plate. Data were normalized to the uninhibited and AC100 inhibition (no enzyme). To monitor activation, the first column contained a titration of the activator, NCGC00031955-01 (16-point 1:2 dilutions in duplicate starting at 57 uM) and the first 16 rows of column 4 contained 57 uM of NCGC00031955-01.
% is set by controls: 0 for no effect and ±100 for the full control effect; potency is the fitted concentration of half-maximal effect; tags give direction and shape of the fitted curve.
Note: nearly all actives have a fitted effect of over 55% in size.

Sequence of UniProt P14618 (P14618 whole entry, looked up, canonical isoform): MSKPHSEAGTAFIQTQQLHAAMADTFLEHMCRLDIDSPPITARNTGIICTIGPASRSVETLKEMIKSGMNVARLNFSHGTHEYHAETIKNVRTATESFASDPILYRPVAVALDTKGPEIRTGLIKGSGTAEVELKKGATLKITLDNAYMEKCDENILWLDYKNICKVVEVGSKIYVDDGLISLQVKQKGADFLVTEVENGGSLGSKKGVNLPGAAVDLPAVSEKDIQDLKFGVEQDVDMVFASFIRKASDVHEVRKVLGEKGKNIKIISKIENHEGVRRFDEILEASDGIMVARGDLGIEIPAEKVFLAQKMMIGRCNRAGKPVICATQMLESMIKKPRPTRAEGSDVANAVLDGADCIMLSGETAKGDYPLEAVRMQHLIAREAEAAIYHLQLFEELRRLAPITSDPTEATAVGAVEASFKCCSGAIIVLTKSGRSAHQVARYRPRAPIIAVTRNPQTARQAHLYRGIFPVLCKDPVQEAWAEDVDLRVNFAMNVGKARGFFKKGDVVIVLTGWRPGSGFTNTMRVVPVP

Q: How did the Potency turn out when `COC(=O)Nc1ccc(C)c2nsnc12` was run?
A: inconclusive [rising, single point]

Q: `NS(=O)(=O)c1ccc2c(c1)oc(=O)c1cc(S(N)(=O)=O)ccc12` was tested. Which Potency did it give?
A: active: 0.355 µM

Q: How did the Potency turn out when `Cc1cc(C)nc(NNC2=CC(=[N+]3CCCCC3)CC(C)(C)C2)n1` was run?
A: inconclusive [rising, single point]

Q: Which Potency does the source give for `O=C(c1ccco1)N(Cc1ccccc1)c1cccc([N+](=O)[O-])c1` here?
A: inconclusive [rising, partial curve]

Q: For `CCCN1C(=O)/C(=C/c2ccc(C)o2)SC1=Nc1ccc(OC)cc1`, which “activation” value is on record?
A: inactive: 0.835%

Q: Which Potency does the source give for `O=S(=O)(Nc1ccc(-n2cccc2)cc1)c1ccc(F)cc1` here?
A: inconclusive [rising, single point]

Q: `CC(C)Oc1ccc(C2CC(=O)N(c3cccc(C(=O)O)c3)C2=O)cc1` (stereo not drawn) was tested. Which Potency did it give?
A: inconclusive [rising, single point]

Q: `CCN(CC)S(=O)(=O)c1ccc2c(c1)[nH]c(=S)n2CC` was tested. Which Potency did it give?
A: inconclusive [rising, partial curve, poor fit]

Q: With `S=c1[nH]nc(-c2cccs2)n1/N=C/c1cn(-c2ccccc2)nc1-c1ccc(Cl)cc1` as the compound, how does the Potency read?
A: inconclusive [rising, single point]

Q: For `CN(CCc1ccccc1)c1ccc([N+](=O)[O-])cn1`, which Potency is on record?
A: inconclusive [rising, single point]

Q: With `CN(CCOc1ccccc1)C(=O)c1cc([N+](=O)[O-])cc([N+](=O)[O-])c1` as the compound, how does the “activation” value read?
A: inactive: -0.0371%

Q: With `O=C(Nc1ccc(-c2cnco2)cc1)c1ccccc1` as the compound, how does the Potency read?
A: inconclusive [rising, single point]

Q: Which Potency does the source give for `COC(=O)c1c(-c2ccco2)csc1NC(=O)C1CC=CCC1C(=O)O` (stereo not drawn) here?
A: inconclusive [rising, single point]

Q: Which “activation” value does the source give for `CNC(=O)COC(=O)c1c2c(nc3ccccc13)CCC2` here?
A: inactive: -3.27%

Q: `N#CCCN1CCN(S(=O)(=O)c2ccc3c(c2)OCCCO3)CC1` was tested. Which Potency did it give?
A: inconclusive [rising, partial curve]

Q: For `COc1ccc(-c2ccc(SCC(=O)Nc3cc(C)on3)nn2)cc1OC`, which Potency is on record?
A: inconclusive [rising, single point]

Q: For `OC(COc1ccccc1CNCc1cccnc1)CN1CCc2ccccc2C1` (stereo not drawn), which Potency is on record?
A: inconclusive [rising, single point]

Q: Which “activation” value does the source give for `COc1ccc2[nH]c(O)c(N=O)c2c1` here?
A: inactive: -2.28%

Q: `CC(=O)NN1C(=O)/C(=C\c2ccccc2)SC1=S` was tested. Which Potency did it give?
A: inconclusive [rising, partial curve]

Q: With `O=C(O)c1ncn(Cc2ccccc2)c1C(=O)O` as the compound, how does the Potency read?
A: inconclusive [rising, single point]

Q: With `Oc1ccc(NCc2cccc(OCc3ccc(F)cc3)c2)cc1` as the compound, how does the Potency read?
A: inconclusive [rising, single point]

Q: `CCCCNS(=O)(=O)c1ccc2nc(SCC(=O)c3ccccc3OC)[nH]c2c1` was tested. Which Potency did it give?
A: inconclusive [rising, single point]

Q: How did the Potency turn out when `O=C(c1ccc(Br)o1)N1CCN=C1SCc1cccnc1` was run?
A: inconclusive [rising, partial curve]

Q: With `Cc1ccc(-c2cc(-c3nnc(SCC(=O)NC(C)C(C)C)n3N)c3ccccc3n2)cc1` (stereo not drawn) as the compound, how does the Potency read?
A: inconclusive [rising, partial curve]

Q: `Cc1noc(C)c1S(=O)(=O)Nc1ccc(C(=O)N2CCN(c3ccc(Cl)cc3)CC2)cc1` was tested. Which Potency did it give?
A: inconclusive [rising, single point]

Q: With `O=C(Cc1ccccc1)Nc1cccc(N2C(=O)C=CC2=O)c1` as the compound, how does the Potency read?
A: active: 2.82 µM

Q: Which Potency does the source give for `O=C(Nc1ccc2c(c1)C(=O)NC2=O)c1ccccc1Cl` here?
A: inconclusive [rising, single point]

Q: Which Potency does the source give for `COc1cc(NC(=S)N2CCN(S(=O)(=O)c3ccc(C)cc3)CC2)cc(OC)c1` here?
A: inconclusive [rising, full curve]

Q: For `COCCn1c(=O)[nH]c2cc(C(=O)N3CCN(c4cccc(C)c4C)CC3)ccc2c1=O`, which Potency is on record?
A: inconclusive [rising, partial curve]

Q: `Cc1ccc(Nc2c(-c3ccc(C)o3)nc3cnccn23)cc1` was tested. Which Potency did it give?
A: active: 11.2 µM

Q: Which Potency does the source give for `Cn1c(=O)oc2cc(S(=O)(=O)Nc3ccc(Cl)cc3)ccc21` here?
A: inconclusive [rising, single point]

Q: Which Potency does the source give for `Cc1ccc(/C=C/C(=O)Nc2cccc3cccnc23)o1` here?
A: inconclusive [rising, partial curve]

Q: Which Potency does the source give for `O=S(=O)(c1ccc(Cl)cc1)N1CCC(n2cccc2)CC1` here?
A: inconclusive [rising, partial curve]

Q: `CCOc1ccccc1C1N=C(c2ccc(OC)cc2)CC(c2ccccc2O)N1` (stereo not drawn) was tested. Which “activation” value did it give?
A: inactive: -7.54%

Q: For `COc1ccc2[nH]c3c(=O)n(Cc4ccco4)cnc3c2c1`, which Potency is on record?
A: inconclusive [rising, full curve]

Q: Which Potency does the source give for `CSc1nc(N)nc(SCCS(=O)(=O)c2ccc(Cl)cc2)c1C#N` here?
A: inconclusive [rising, full curve]

Q: `Cc1oc(-c2cc3c(cc2Cl)OCO3)nc1CN1CCCC(C(=O)N2CCOCC2)C1` (stereo not drawn) was tested. Which Potency did it give?
A: inconclusive [rising, partial curve]

Q: `O=C(COc1ccc2ccccc2c1)NCCn1ccc2ccccc21` was tested. Which Potency did it give?
A: inconclusive [rising, single point]

Q: `COc1ccc(S(=O)(=O)N(C(C)=O)c2ccc3oc(=O)sc3c2)cc1` was tested. Which Potency did it give?
A: inconclusive [rising, single point]

Q: Which Potency does the source give for `CC1CCCCN1C(=O)CCS(=O)(=O)c1cc2c(cc1Cl)NC(=O)CO2` (stereo not drawn) here?
A: inconclusive [rising, partial curve]

Q: How did the Potency turn out when `COCC(=O)N1CCC(n2nnc3cc(C(F)(F)F)ccc32)CC1` was run?
A: inconclusive [rising, partial curve]

Q: `CCN(CC)S(=O)(=O)c1ccc(OCC(=O)NCc2ccco2)cc1` was tested. Which Potency did it give?
A: inconclusive [rising, partial curve, poor fit]

Q: With `CNc1ccc(Br)cc(C(=O)/C=C/c2cccc(OC)c2OC)c1=O` as the compound, how does the Potency read?
A: inconclusive [rising, partial curve]

— PubChem BioAssay AID1631 (National Center for Advancing Translational Sciences (NCATS), 2009)
